Residue numbers refer to the chain shown, from its start. Names and notes keep the numbering of the source. ± gives the standard deviation of the averaged measurements. Laboratory Escherichia coli strains with one amino-acid change in an essential protein, pooled on minimal glucose agar with carbenicillin or gentamicin at twice the control MIC (plus kanamycin and chloramphenicol for the plasmids), 48 h. Fold change of barcode share against drug-free plates; higher = less susceptible. Active = above 20 in both replicates (the paper's putatively resistant). '<' = one read or none on drug, '>' = one read or none on a drug-free plate. Shares are relative, so most strains fall below 1 when a few take over. Listed are strains with at least 15 reads on both drug-free plates, and hits; most hits rest on fewer reference reads. Replicate rank correlation about 0.5. Edits are read from barcodes.
B1: murF V103A (protein)
chain: MISVTLSQLTDILNGELQGADITLDAVTTDTRKLTPGCLFVALKGERFDAHDFADQAKAGGAGALLVSRPLDIDLPQLIVKDTRLAFGELAAWVRQQVPARVAALTGSSGKTSVKEMTAAILSQCGNTLYTAGNLNNDIGVPMTLLRLTPEYDYAVIELGANHQGEIAWTVSLTRPEAALVNNLAAAHLEGFGSLAGVAKAKGEIFSGLPENGIAIMNADNNDWLNWQSVIGSRKVWRFSPNAANSDFTATNIHVTSHGTEFTLQTPTGSVDVLLPLPGRHNIANALAAAALSMSVGATLDAIKAGLANLKAVPGRLFPIQLAENQLLLDDSYNANVGSMTAAVQVLAEMPGYRVLVVGDMAELGAESEACHVQVGEAAKAAGIDRVLSVGKQSHAISTASGVGEHFADKTALITRLKLLIAEQQVITILVKGSRSAAMEEVVRALQENGTC
B2: murF V357A (protein)
chain: B1 chain with A103V, V357A
B3: murF V41A (protein)
chain: B1 chain with V41A, A103V
B4: murF V41W (protein)
chain: B1 chain with V41W, A103V
B5: murF V41P (protein)
chain: B1 chain with V41P, A103V
B6: murE M141Q (protein)
chain: MADRNLRDLLAPWVPDAPSRALREMTLDSRVAAAGDLFVAVVGHQADGRRYIPQAIAQGVAAIIAEAKDEATDGEIREMHGVPVIYLSQLNERLSALAGRFYHEPSDNLRLVGVTGTNGKTTTTQLLAQWSQLLGEISAVQGTVGNGLLGKVIPTENTTGSAVDVQHELAGLVDQGATFCAMEVSSHGLVQHRVAALKFAASVFTNLSRDHLDYHGDMEHYEAAKWLLYSEHHCGQAIINADDEVGRRWLAKLPDAVAVSMEDHINPNCHGRWLKATEVNYHDSGATIRFSSSWGDGEIESHLMGAFNVSNLLLALATLLALGYPLADLLKTAARLQPVCGRMEVFTAPGKPTVVVDYAHTPDALEKALQAARLHCAGKLWCVFGCGGDRDKGKRPLMGAIAEEFADVAVVTDDNPRTEEPRAIINDILAGMLDAGHAKVMEGRAEAVTCAVMQAKENDVVLVAGKGHEDYQIVGNQRLDYSDRVTVARLLGVIA
B7: murE V355A (protein)
chain: B6 chain with Q141M, V355A
B8: murE V356A (protein)
chain: B6 chain with Q141M, V356A
B9: murE W381Q (protein)
chain: B6 chain with Q141M, W381Q
B10: murE W381A (protein)
chain: B6 chain with Q141M, W381A
B11: asnS F38W (protein)
chain: MSVVPVADVLQGRVAVDSEVTVRGWVRTRRDSKAGISWLAVYDGSCFDPVQAVINNSLPNYNEDVLRLTTGCSVIVTGKVVASPGQGQQFEIQASKVEVAGWVEDPDTYPMAAKRHSIEYLREVAHLRPRTNLIGAVARVRHTLAQALHRFFNEQGFFWVSTPLITASDTEGAGEMFRVSTLDLENLPRNDQGKVDFDKDFFGKESFLTVSGQLNGETYACALSKIYTFGPTFRAENSNTSRHLAEFWMLEPEVAFANLNDIAGLAEAMLKYVFKAVLEERADDMKFFAERVDKDAVSRLERFIEADFAQVDYTDAVTILENCGRKFENPVYWGVDLSSEHERYLAEEHFKAPVVVKNYPKDIKAFYMRLNEDGKTVAAMDVLAPGIGEIIGGSQREERLDVLDERMLEMGLNKEDYWWYRDLRRYGTVPHSGFGLGFERLIAYVTGVQNVRDVIPFPRTPRNASF

Biological target: Escherichia coli (laboratory strain)
Experiment: barcode share on antibiotic plates over drug-free plates; higher = less susceptible
Protocol: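 A pool of E. coli strains, each edited to carry one amino-acid change in an essential protein, was grown for 48 h on minimal glucose agar with or without antibiotic; strain barcodes were sequenced; mean of two replicates.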

[1] = antibiotic: carbenicillin, 2× MIC (3.1 µg/mL)
[2] = antibiotic: gentamicin, 2× MIC (MIC 0.45 µg/mL)

| Protein | fold change of barcode share [1] | fold change of barcode share [2] |
| --- | --- | --- |
| B1 | 0.369 ± 0.043 | 0.104 ± 0.13 |
| B2 | 0.351 ± 0.033 | 0.00351 ± 0.00052 |
| B3 | 0.52 ± 0.33 | < 0.012 |
| B4 | 0.211 ± 0.013 | < 0.0119 |
| B5 | 0.147 ± 0.062 | < 0.00743 |
| B6 | 0.203 ± 0.045 | 0.0244 ± 0.024 |
| B7 | 0.228 ± 0.16 | 0.00561 ± 0.00083 |
| B8 | 0.152 ± 0.051 | 0.00963 ± 0.011 |
| B9 | 0.509 ± 0.44 | – |
| B10 | 0.132 ± 0.02 | 0.0151 ± 0.018 |
| B11 | 0.337 ± 0.059 | – |

From the supplement of paper PMC11876631
